Measurements from PubChem BioAssay AID1508624 (National Center for Advancing Translational Sciences (NCATS), 2021).
Among all 48,000 compounds or so, about 120 (0.25%) were called active. Roughly 4% stayed inconclusive and do not appear here. The call rests on the fitted dose curve; in most records, active means well fitted activation curve with a large enough effect; inconclusive means small, poorly fitted or top-dose-only effect, or another doubt; inactive means no such curve, though single readings can be large or run the other way. Some of the results follow.

assay: Primary qHTS for Identification of Small Molecule Activators of Huntingtin-Antisense Promoter Activity; conditions: HEK293 HTT-AS promoter firefly luciferase reporter (activity 0% = vehicle and -100% = no light), 24 h; series mostly up to 57.5 µM; activity change, positive = activation: at the top concentration; further: nearly all actives have a fitted effect of over 55% in size
Summary of the method: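 Firefly luciferase readout (Dual-Glo, 10 min RT) after 24 h, 37 °C compound exposure (final up to 57.5 uM) of HEK293 reporter cells cultured 24 h beforehand; PTC124 at 50 uM final as control inhibitor; activity scaled vehicle 0%, zero RLU -100%.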
Potency means the concentration at half of the fitted maximal effect.

Potency, active:
O=c1cc(-c2ccccc2)oc2cc(O)cc(O)c12 24.3 µM

Activity change, positive = activation, inactive:
CCS(=O)(=O)N1CC(=O)N(c2ccccc2C)C(C)(C(=O)NC2CCCCC2)C1 (stereo not drawn) -13.9%
COc1ccc(NC(=O)CSc2nnc(-c3ccc(C)cc3)o2)cc1 -7.01%
Cc1ccc(Cl)cc1N1CCN(C(=O)c2cn(C3CCCCC3)c(=O)c3c2c2ccccc2n3C)CC1 -18.5%
CN(C)c1ccc(C(CNC(=O)COc2ccc(Cl)cc2)N2CCOCC2)cc1 (stereo not drawn) -4.48%
CCOC(=O)c1noc2ncnc(N3CCN(c4ccccc4OC)CC3)c12 -3.41%
COc1cc(C2NC(=O)NC(C)=C2C(=O)Nc2cc(C)cc(C)c2)ccc1O (stereo not drawn) -4.04%
COc1ccc2c(c1)c(C1=C(c3c[nH]c4ccccc34)C(=O)NC1=O)cn2CCCN(C)C -7.92%
CCOC(=O)c1c(C)c(-c2ccccc2)n(CC(=O)Nc2cc(OC)cc(OC)c2)c1C -31.2%
O=c1ccn([C@@H]2O[C@H](CO)[C@H](O)[C@H]2O)c(=O)[nH]1 4.46%
CC(C)(C)NS(=O)(=O)c1ccc2nc(NC(=O)c3cccnc3)sc2c1 4.52%
COC(=O)CNC(=O)Nc1cc(C(=O)NCc2ccc(C)cc2)ccc1N1CCCC1 3.07%
COC(=O)C1CCN(S(=O)(=O)c2cc3c4c(c2)C(C)C(=O)N4CCC3)CC1 (stereo not drawn) -9.94%
CC(=O)N1c2ccccc2CC1C(=O)N1CCN(c2ccc(F)cc2)CC1 (stereo not drawn) -8.11%
COc1ccc(C)cc1NC(=O)c1oc2ccc(S(=O)(=O)N(C)C3CCCCC3)cc2c1C -7.38%
O=C(Nc1ccc(F)cc1F)c1ccc(CN2CC(=O)N3CCCCC3C2=O)cc1 (stereo not drawn) 0%
CC(C)(C)c1cc(C(C)(C)C)c2oc(=O)c(-c3nc4ccccc4[nH]3)cc2c1 -15.6%
O=C(CSc1nc2ccccc2c2nc(-c3ccccc3)nn12)Nc1ccc(Br)cc1 8.7%
Cc1ccc(Cn2c(SCC(=O)NCc3ccc(Cl)cc3)nc3ccsc3c2=O)cc1 -18.2%
CCc1cc(C(=O)Nc2c(C)nn(Cc3ccc(C)cc3)c2C)no1 -20.6%
c1cnc2cc3c(cc2n1)C1CNCC3C1 -16.6%
Cc1ccc2nc(-c3ccsc3)c(Nc3ccccc3C)n2c1 -4.83%
Cc1nc2nncn2c(N2CCN(c3ccccc3)CC2)c1C -29.7%
COc1ccccc1/C=C/c1nc(C#N)c(N2CCCCC2)o1 -2.05%
O=C(NCc1ccc(F)cc1)c1ccc(CSCc2cccc(Cl)c2)o1 -17.6%
CN(C)CCOc1ccc(-c2nc(-c3ccc4c(c3)CCC4=NO)c(-c3ccncc3)[nH]2)cc1 -6.1%
COCCNC(=O)Cc1ccc(NC(=O)N2CCCCc3ccccc32)cc1 2.43%
COc1ccc(-n2c(/C=C/c3ccccc3F)nc3cc(OC)c(OC)cc3c2=O)cc1Cl -35.7%
COCCNC(=O)c1cnn(-c2ccc(C)cc2C)c1C1CCN(C(=O)OC(C)(C)C)CC1 2.63%
Cc1ccccc1Cn1c(C(=O)O)c(CNCc2cccc(F)c2)c2ccccc21 -14.6%
COC(=O)c1scc(-c2ccccc2)c1S(=O)(=O)Nc1ccccc1 -18.9%
CCN(CC)C(=O)C1CCN(S(=O)(=O)c2ccc3c(c2)CCCN3C(C)=O)CC1 -22%
Cc1ccc(-c2cc(C(F)(F)F)n3nc(C(=O)Nc4ccc(Cl)cc4Cl)cc3n2)cc1 -4.45%
Cc1ccc(NC(=O)CSc2ncc3c(n2)-c2ccccc2N(Cc2cccc(F)c2)S3(=O)=O)cc1F -10.2%
Cc1ccc(N2CC(NC(=O)/C=C\c3ccc4c(c3)OCO4)CC2=O)cc1C (stereo not drawn) -16.5%
O=C1c2ccccc2C(=O)C1(c1ccccc1)N1CCN(c2cccc(Cl)c2)CC1 -13.5%
CC(C)c1ccc(S(=O)(=O)c2nnn3c2nc(NCCc2ccccc2)c2sccc23)cc1 -26.8%
Cc1ccc(CNC(=O)c2cc3sccc3n2Cc2ccc(Cl)cc2)cc1 -21.7%
CCCn1c(=O)c2sccc2n2c(CCCC(=O)NCCc3ccc(Cl)cc3)nnc12 -9.57%
CC(CCc1ccccc1)NC(=O)Cn1ncc2c3ccccc3n(Cc3ccc(F)cc3)c2c1=O (stereo not drawn) -2.54%
CC(=O)Nc1ccc(S(=O)(=O)NCC2CCC(C(=O)NCCc3ccccc3)CC2)cc1 (stereo not drawn) 3.49%
Cc1nn(C(=O)c2cccc([N+](=O)[O-])c2C)c(C)c1S(=O)(=O)N1CCOCC1 -6.48%
CCO[C@H](Cc1ccc(OCCc2ccc(OS(C)(=O)=O)cc2)cc1)C(=O)O 1.35%
COCC(=O)Oc1c(Sc2ccc(C)cc2)c(C)nn1C(C)(C)C -2.48%
COc1cc(-c2ccno2)ccc1S(=O)(=O)N1CCN(c2cc(C)ccc2C)CC1 -20.1%
COc1cccc(N2CC(NC(=O)C(c3ccccc3)c3ccccc3)CC2=O)c1 (stereo not drawn) -16.7%
COc1cccc(NC(=O)C2CCCN(S(=O)(=O)c3c(C)[nH]c(=O)[nH]c3=O)C2)c1 (stereo not drawn) -18.5%
O=C(Nc1ccc(Br)c2cccnc12)c1cccc2ccccc12 -8.79%
CCN(c1cc(C)cc(C)c1)S(=O)(=O)c1nnc(NC(=O)C2CCCCC2)s1 -10.7%
Cc1cc(C)cc(NC(=O)CCC(=O)N2Cc3ccccc3Oc3ncccc32)c1 -26.9%
Cc1ccc(CCNC(=O)c2cc3sccc3n2Cc2ccc(C)cc2)cc1 -26.3%
Cc1c(Cl)cccc1-c1ccc(CNc2ccc3[nH]c(=O)[nH]c3c2)o1 -33.8%
Cc1c(Cl)ccc2sc(NC(=O)c3ccc(S(=O)(=O)N4CCCc5ccccc54)cc3)nc12 -16.5%
CCCc1cnc2c(c1SCC(=O)N(C)c1ccccc1)c(=O)n(C)c(=O)n2C -11.1%
CC1CCN(S(=O)(=O)c2ccc3c(c2)oc(=O)n3CC(=O)NCc2ccc(F)cc2)CC1 -88.7%
Cc1cc(C)cc(-n2c(SCC(=O)N3CCCCC3)nc3c([nH]c4ccccc43)c2=O)c1 -10.4%
CCOc1ccc(NC(=O)Cn2c(=O)n(Cc3ccco3)c(=O)c3oc4ccccc4c32)cc1 -15.4%
CC1CN(C(=O)Nc2ccc(C(=O)NCCc3ccccc3)cc2)c2ccccc2S1 (stereo not drawn) -5.52%
CCOc1cc(-c2ccc(OC(=O)c3ccccc3F)cc2)cc(=O)c2c(C)oc(C)c12 -19.3%
CCOc1ccc(C(=O)Nc2cc(-c3nc4ccccc4o3)ccc2C)cc1Cl 0.859%
Cc1cc(C)nc(NS(=O)(=O)c2ccc(NC(=O)COc3ccc(Cl)cc3C)cc2)n1 -24.4%
CCN(Cc1ccccc1)C(=O)c1c(C)oc2ncn(C)c(=O)c12 -8.65%
O=C(CSc1nccn1Cc1ccccc1)NCc1ccc(F)cc1 -5.54%
COc1ccc(-n2nc3ccc(NC(=O)c4ccc(-c5cc(Cl)ccc5Cl)o4)cc3n2)cc1 -15%
Clc1cccc(N2CCN(c3nc4ccccc4n4cnnc34)CC2)c1 -6.66%
COc1ccc(NC(=O)CCc2nnc3n(C)c(=O)c4sccc4n23)cc1 0.655%
COc1ccc(C(=O)NCCn2cc(SCC(=O)Nc3cccc(C)c3)c3ccccc32)cc1 -59.2%
Cc1ccc(C)n1-c1c(C(=O)NCCC(C)C)sc2ncccc12 22%
COCCc1nn2c(=O)cc(COC(=O)c3ccc(OC)c(OC)c3)nc2s1 -14.9%
Cc1oc2ncn(CC(C)C)c(=O)c2c1C(=O)N1CCN(c2cccc(C(F)(F)F)c2)CC1 -18.2%
CCOC(=O)C1CCN(C(=O)Cn2c(=O)cc(C)c3c(C)nn(C)c32)CC1 -32.1%
COc1cc(-c2nc3nc[nH]n3c2Nc2ccc(C(C)C)cc2)ccc1O -22.2%
Cc1cccc(-n2ncc3c(Nc4ccc(Oc5ccc(Cl)cc5)cc4)ncnc32)c1 -1.89%
Cc1cc(C)c(CSc2nnc(C)n3c2cc2occc23)c(C)c1 -12.4%
CCN(Cc1ccccc1)C(=O)c1nc(-c2cccc(F)c2)n2c1CCCCC2 -29.8%
Cc1ccn2c(Nc3ccccc3C)c(-c3ccccn3)nc2c1 -45.9%
COCCCNC(=O)C1CCCN(C(=O)c2cnn(-c3ccc(F)cc3)c2-n2cccc2)C1 (stereo not drawn) 4.07%
Cc1ccc(SCc2nc(-c3ccc(C(=O)NCc4ccc(Cl)cc4)cc3)oc2C)cc1 -8.69%
O=C(NC1CCCCC1)c1cc(Nc2cccc(C(F)(F)F)c2)nc2ccccc12 -6.06%
COc1cc(C(=O)Nc2nc3nc(-c4ccccc4)cc(=O)n3[nH]2)cc(OC)c1OC -8.12%
Cc1ccn2c(=O)cc(CSc3nnc(NC(=O)c4ccccc4Cl)s3)nc2c1 -4.86%
COc1cc(NC(=O)c2noc3c2CSc2ccccc2-3)cc(OC)c1OC -4.89%
COc1ccc(CNC(=O)c2cc3c(=O)[nH]c4ccccc4c3s2)cc1 0.0867%
CCOC(=O)c1ccccc1NC(=O)CCOc1ccccc1 -4.38%
Cc1cccc(N2CCN(C(=O)NCc3noc4ccccc34)CC2)c1C 0.0014%
O=C(NC1CCCCC1)c1cc2c(Cl)nc3ccccc3c2s1 -6.99%
CCOc1ccc(NC(=O)C(NS(=O)(=O)c2cccc3nsnc23)c2ccccc2)cc1 (stereo not drawn) -10.4%
COc1ccccc1CNC(=O)C(=O)NCC(c1ccco1)S(=O)(=O)c1cccs1 (stereo not drawn) -12%
OCCCc1nc2ccccc2n1CCCCOc1ccccc1 -18.3%
Cc1cccc(-c2noc(CN(C(=O)COc3ccc(Br)cc3C)C(C)C)n2)c1 -38.4%
O=C(CCN1CCN(CCO)CC1)N1c2ccccc2Sc2ccc(C(F)(F)F)cc21 -8.24%
CCn1c(=O)n(CC)c2cc(N3CCCCC3)c(NC(=O)Nc3cc(C)cc(C)c3)cc21 -32.8%
CCn1cc(C(=O)N2CCN(c3cc(C)ccc3C)CC2)c(=O)c2cc(S(=O)(=O)N3CCOCC3)ccc21 -12.3%
COc1ccc(Cl)cc1NC(=O)Cn1c(=O)n(Cc2ccco2)c(=O)c2cccnc21 -28.1%
O=c1nc2sc3ccccc3n2c(=O)n1-c1ccc(Cl)c(Cl)c1 9.28%
O=C1NCCc2[nH]c(-c3ccncc3)cc21 -31%
O=C1c2[nH]nc(-c3ccccc3O)c2C(c2ccc(Cl)cc2)N1Cc1ccco1 (stereo not drawn) -24.7%
Cc1ccc(NC(=O)c2cccc(N(C)C)c2)cc1NC(=O)c1ccc(O)cc1 -11.1%
